The test system of the experiment is 519858-162-T-J1-PDC spheroid growth inhibition. Kind of experiment: Anticancer human tumor 519858-162-T-J1-PDC patient-derived colon adenocarcinoma cell line growth inhibition [TAK]. The settings on record: stronger effect = lower value, spheroids with HUVEC and MSC. The source says:
Combinatorial screen of targeted agents with TAK-243 and ipatasertib in multi-cell type tumor spheroids
A high-throughput screen of multi-cell type tumor spheroids was designed to identify active combinations of targeted small molecules and TAK-243 or ipatasertib. Complex spheroids include a stromal component modeled by human endothelial cells (HUVEC) and fibroblasts modeled by human mesenchymal stem cells (MSCs). The concentration ranges selected for each drug and investigational agent were based upon clinically achievable concentrations if the clinical Cmax of the agent was known.
Compounds. The drugs and investigational agents: TAK-243 (785004), ipatasertib (767898), everolimus (733504), selumetinib (741078), bortezomib (756655), trametinib (758246), ixazomib (758254), vemurafenib (761431), dabrafenib (764134), sapanisertib (764658), alpelisib (765974), and copanlisib (816437), were obtained from the National Cancer Institute (NCI) Developmental Therapeutics Program Chemical Repository. The FDA-approved anticancer drug set is available from the NCI Developmental Therapeutics Program. […] The stock solutions were prepared in dimethyl sulfoxide (DMSO, Sigma-Aldrich, St. Louis, MO, cat. D2650) at 800-fold the tested concentration and stored at -70 degrees C prior to their use. All drugs and investigational agents were tested over a range starting from a high concentration at or near the clinical Cmax and decreasing in half-log increments. If the clinical Cmax for an agent had not been determined, the highest concentration tested was 10 microM.
NCI60 Cell Culture. NCI60 cell lines were obtained from the NCI Developmental Therapeutics Program Tumor Repository. For each lot of cells, the Repository performed Applied Biosystems AmpFLSTR Identifiler testing with PCR amplification to confirm consistency with the published Identifier STR profile for each cell line. Cells were kept in continuous culture for no more than 20 passages. The optimal seeding densities for each of the cell lines at each time point assessed were determined prior to performing the concentration response studies. Briefly, the NCI60 human tumor lines were grown as monolayers in RPMI 1640 medium supplemented with 10% FBS and 2 mmol/L L-glutamine.
An additional 2 lines were from the NCI60 cell line panel including melanomas, MALME-3M and SK-MEL-2. Pooled donor human umbilical vein endothelial cells (HUVEC, Lonza, cat. CC-2519) and human mesenchymal stem cells (hMSC, Lonza, cat. PT-2501) were purchased from Lonza (Walkersville, MD).
PDMR cell lines were grown in complete medium (DC medium): Dulbecco's modified Eagle's medium (DMEM)/F12 supplemented with 5% fetal bovine serum (FBS), 2 mM L-glutamine, 100 U/mL penicillin and 100 µg/ml streptomycin, 0.4 µg/ml hydrocortisone, 10 ng/ml epidermal growth factor (EGF) recombinant human protein, 24 µg/mL adenine, and 0.1 mg/mL primocin. During culture from frozen stock vials, PDMR cells were cultured in the same medium containing 10 µM Y-27632 (see Table 3). The PDCs were cultured in complete DMEM/F12 media without 10 microM Y-27632 dihydrochloride for at least two passages prior to the screen. The pooled donor HUVEC and hMSC were cultured in endothelial cell growth medium 2 (PromoCell, Heidelberg, Germany, cat. C-22011) and mesenchymal stem cell growth medium 2 (PromoCell, cat. C-28009), respectively. For all experiments, HUVEC and hMSC were used at passages </=5.
For the pre-screen, cell seeding densities were determined from a titration spanning the range from 5,000 to 313 cells per well. The mct-spheroids including 60% malignant cells, 25% HUVEC and 15% MSC dispensed as a mixture into U-bottom Ultra-Low Attachment 384-well plates (Corning, NY)
High-throughput Drug Combination Screening.
Prior to their inoculation into 384-well plates, malignant cells, HUVEC, and hMSC were removed from T flasks using TrypLE express (Thermo Fisher Scientific, cat. 12605036) and harvested by centrifugation for 5 min at 233 x g. […]

The structures appear in SMILES notation. A number of entries come with more than one value. They are shown here; other results are not. The source may hold further records. Values that stand side by side are repeated measurements in other runs, samples, wells, individuals or studies. Marks such as (2×) count equal records among those shown.
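Note: spheroids exposed to drugs for 7 days.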

With `CC(C)NCC(C(=O)N1CCN(c2ncnc3c2C(C)CC3O)CC1)c1ccc(Cl)cc1` (stereo unspecified), the viability, T/C runs as follows: (compound alone 0.3 µM) 89, 101 (2×), 94.7, 69.9, 102, 77.5, 89.9, 87.1, 95.8%; (compound alone 0.949 µM) 108, 94.9, 79.5, 89.2, 105, 104, 76.9, 79.4, 101, 77.7%; (compound alone 9.49 µM) 92.8, 87.7, 88.6, 96.5, 101, 67.3, 85.8, 98.3, 100, 94%.
For `CC(C)CC(NC(=O)CNC(=O)c1cc(Cl)ccc1Cl)B1OC(=O)CC(CC(=O)O)(C(=O)O)O1` (stereo unspecified), under “compound alone 0.001 µM”, the viability, T/C was 117% and 79.8%.
In the case of `CC(C)n1nc(-c2ccc3oc(N)nc3c2)c2c(N)ncnc21`, the viability, T/C (compound alone 0.000316 µM) is 77.9% and 108%.
With `COC1CC2CCC(C)C(O)(O2)C(=O)C(=O)N2CCCCC2C(=O)OC(C(C)CC2CCC(OCCO)C(OC)C2)CC(=O)C(C)C=C(C)C(O)C(OC)C(=O)C(C)CC(C)C=CC=CC=C1C` (stereo unspecified), the viability, T/C (compound alone 0.001 µM) was 74.8% and 100%.

(Values after PubChem BioAssay AID2060354 (Molecular Pharmacology Branch, DTP, NCI, 2025).)
